Article PMC11584650, “An inhibitory segment within G-patch activators tunes Prp43-ATPase activity during ribosome assembly” (Nature Communications, 2024)
No constants are given. Whether binding was seen depends on the method and setting. For part of these data: In cells and extracts the contact can be indirect. Some entries that bind do so weakly or less than the wild type. For part of these data: Where a sequence is shown, tags or fusion partners need not be part of it.

Sequences of proteins named here, by UniProt entry; tags and fusion partners are left off.
UniProt P53131: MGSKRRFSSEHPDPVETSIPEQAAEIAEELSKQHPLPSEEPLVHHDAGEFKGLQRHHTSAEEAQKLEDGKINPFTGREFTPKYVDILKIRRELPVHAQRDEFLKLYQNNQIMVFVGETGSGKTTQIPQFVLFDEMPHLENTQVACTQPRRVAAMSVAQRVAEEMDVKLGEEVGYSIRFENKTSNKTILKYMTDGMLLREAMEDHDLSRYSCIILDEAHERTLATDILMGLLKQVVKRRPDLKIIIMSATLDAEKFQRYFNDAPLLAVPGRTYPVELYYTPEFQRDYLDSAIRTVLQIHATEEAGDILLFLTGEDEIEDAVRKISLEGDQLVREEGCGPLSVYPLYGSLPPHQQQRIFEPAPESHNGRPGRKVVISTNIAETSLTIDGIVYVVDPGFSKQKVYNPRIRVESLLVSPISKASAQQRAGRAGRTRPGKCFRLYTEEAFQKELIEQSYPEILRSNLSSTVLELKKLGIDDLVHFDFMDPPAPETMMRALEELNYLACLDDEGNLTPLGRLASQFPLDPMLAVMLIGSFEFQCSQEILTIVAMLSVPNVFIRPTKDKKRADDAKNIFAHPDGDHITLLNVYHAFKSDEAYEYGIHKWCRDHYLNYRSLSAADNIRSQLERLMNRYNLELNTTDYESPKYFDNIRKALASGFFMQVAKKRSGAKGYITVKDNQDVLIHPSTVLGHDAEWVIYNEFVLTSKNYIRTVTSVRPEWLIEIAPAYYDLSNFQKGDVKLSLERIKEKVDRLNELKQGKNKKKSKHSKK

How the values were obtained:
[1] = biological target: T1, GST-Pfa1^G (S. cerevisiae) (UniProt P53866); assay: pull-down; GST-tagged variants co-expressed with His6-Prp43 in E. coli; lysate on Glutathione Sepharose 4 Fast Flow beads, 25 mM Tris-HCl pH 7.5, 150 mM NaCl, 5 mM MgCl2, 10% glycerol, 0.1% NP-40, 4 °C; eluted with LDS buffer, Coomassie staining
T1 sequence: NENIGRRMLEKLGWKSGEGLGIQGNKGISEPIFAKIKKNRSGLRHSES

[2] = biological target: T2, Pxr1^GM (recombinant, co-expressed with Prp43) (S. cerevisiae) (UniProt P53335); assay: as above
T2 sequence: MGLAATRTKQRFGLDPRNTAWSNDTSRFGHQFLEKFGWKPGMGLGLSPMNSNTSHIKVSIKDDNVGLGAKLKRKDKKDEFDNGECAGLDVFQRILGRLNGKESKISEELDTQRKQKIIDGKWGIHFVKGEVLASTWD

Pxr1-TAP (S. cerevisiae) = biological target: T3, Pxr1-TAP (S. cerevisiae) (UniProt P53335); assay: tandem affinity purification with Western blotting; Tma23-TAP and Pxr1-TAP purified from yeast lysate (IgG Sepharose, TEV elution, Calmodulin Sepharose); eluates blotted with antibodies against Tma23, Pxr1 and Prp43
T3 sequence: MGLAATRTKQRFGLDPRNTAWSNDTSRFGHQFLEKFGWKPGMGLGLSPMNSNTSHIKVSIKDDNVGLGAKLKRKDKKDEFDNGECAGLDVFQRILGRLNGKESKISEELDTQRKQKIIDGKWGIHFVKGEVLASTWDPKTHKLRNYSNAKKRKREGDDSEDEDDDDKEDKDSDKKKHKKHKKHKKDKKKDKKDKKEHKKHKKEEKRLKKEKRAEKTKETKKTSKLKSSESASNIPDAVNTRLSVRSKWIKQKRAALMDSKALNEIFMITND

Row | Substance | binding [1] | binding [2] | binding (Pxr1-TAP (S. cerevisiae))
1 | His6-Prp43 (from UniProt P53131 1-767) (enzyme) | binds | binds | 
2 | Prp43 (from UniProt P53131 1-767) (enzyme) |  |  | binds
